# Measured values reported in the supplement of paper PMC12067093, “Discovery and optimisation of a covalent ligand for TRIM25 and its application to targeted protein ubiquitination” (Chemical Science, 2025).
# Targets with the largest changes are over-represented here; the source holds about 21,000 in all.
# Compound: Cc1cc(ccc1-c1ccccc1)C(=O)N1CCCN(CC1)C(=O)CCl [compound 10]
# Assay: probe-labelled cysteine peptide fold change vs DMSO (competition) (log2 fold change); higher = less target engagement (more negative = stronger competition)
# Settings: THP-1, incubation time: 4 h
# 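Further: competitive profiling in live THP-1 cells: cysteine peptides tagged with an iodoacetamide desthiobiotin (IA-DTB) probe, intensity after compound treatment relative to DMSO-treated cells.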
# UniProt Q6UW63, sequence (Q6UW63 whole entry, looked up): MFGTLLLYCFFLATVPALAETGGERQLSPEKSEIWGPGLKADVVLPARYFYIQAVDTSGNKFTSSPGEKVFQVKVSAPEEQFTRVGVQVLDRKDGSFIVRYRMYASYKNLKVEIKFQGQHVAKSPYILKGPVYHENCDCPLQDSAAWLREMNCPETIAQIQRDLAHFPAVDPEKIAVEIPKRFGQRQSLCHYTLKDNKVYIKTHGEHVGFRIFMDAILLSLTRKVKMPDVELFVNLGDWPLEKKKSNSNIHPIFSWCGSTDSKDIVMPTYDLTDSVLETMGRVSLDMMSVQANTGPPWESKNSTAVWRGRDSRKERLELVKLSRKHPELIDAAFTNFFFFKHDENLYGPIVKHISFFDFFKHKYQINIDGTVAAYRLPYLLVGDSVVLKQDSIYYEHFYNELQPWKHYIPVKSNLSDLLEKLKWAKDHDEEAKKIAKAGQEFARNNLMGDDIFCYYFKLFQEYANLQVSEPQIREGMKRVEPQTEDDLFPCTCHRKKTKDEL
# UniProt Q9Y6K9, sequence (Q9Y6K9 whole entry, looked up): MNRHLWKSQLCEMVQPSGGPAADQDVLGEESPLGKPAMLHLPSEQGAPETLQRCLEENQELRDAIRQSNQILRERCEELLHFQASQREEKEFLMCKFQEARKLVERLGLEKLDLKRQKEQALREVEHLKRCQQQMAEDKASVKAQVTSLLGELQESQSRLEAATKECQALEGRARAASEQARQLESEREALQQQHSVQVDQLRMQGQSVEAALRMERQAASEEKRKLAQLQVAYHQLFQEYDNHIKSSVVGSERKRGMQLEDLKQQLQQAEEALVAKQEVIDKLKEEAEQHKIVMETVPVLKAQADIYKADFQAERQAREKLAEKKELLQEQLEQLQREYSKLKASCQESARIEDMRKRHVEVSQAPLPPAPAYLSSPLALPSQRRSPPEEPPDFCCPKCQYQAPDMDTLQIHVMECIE
# UniProt O15357, sequence (O15357 whole entry, looked up): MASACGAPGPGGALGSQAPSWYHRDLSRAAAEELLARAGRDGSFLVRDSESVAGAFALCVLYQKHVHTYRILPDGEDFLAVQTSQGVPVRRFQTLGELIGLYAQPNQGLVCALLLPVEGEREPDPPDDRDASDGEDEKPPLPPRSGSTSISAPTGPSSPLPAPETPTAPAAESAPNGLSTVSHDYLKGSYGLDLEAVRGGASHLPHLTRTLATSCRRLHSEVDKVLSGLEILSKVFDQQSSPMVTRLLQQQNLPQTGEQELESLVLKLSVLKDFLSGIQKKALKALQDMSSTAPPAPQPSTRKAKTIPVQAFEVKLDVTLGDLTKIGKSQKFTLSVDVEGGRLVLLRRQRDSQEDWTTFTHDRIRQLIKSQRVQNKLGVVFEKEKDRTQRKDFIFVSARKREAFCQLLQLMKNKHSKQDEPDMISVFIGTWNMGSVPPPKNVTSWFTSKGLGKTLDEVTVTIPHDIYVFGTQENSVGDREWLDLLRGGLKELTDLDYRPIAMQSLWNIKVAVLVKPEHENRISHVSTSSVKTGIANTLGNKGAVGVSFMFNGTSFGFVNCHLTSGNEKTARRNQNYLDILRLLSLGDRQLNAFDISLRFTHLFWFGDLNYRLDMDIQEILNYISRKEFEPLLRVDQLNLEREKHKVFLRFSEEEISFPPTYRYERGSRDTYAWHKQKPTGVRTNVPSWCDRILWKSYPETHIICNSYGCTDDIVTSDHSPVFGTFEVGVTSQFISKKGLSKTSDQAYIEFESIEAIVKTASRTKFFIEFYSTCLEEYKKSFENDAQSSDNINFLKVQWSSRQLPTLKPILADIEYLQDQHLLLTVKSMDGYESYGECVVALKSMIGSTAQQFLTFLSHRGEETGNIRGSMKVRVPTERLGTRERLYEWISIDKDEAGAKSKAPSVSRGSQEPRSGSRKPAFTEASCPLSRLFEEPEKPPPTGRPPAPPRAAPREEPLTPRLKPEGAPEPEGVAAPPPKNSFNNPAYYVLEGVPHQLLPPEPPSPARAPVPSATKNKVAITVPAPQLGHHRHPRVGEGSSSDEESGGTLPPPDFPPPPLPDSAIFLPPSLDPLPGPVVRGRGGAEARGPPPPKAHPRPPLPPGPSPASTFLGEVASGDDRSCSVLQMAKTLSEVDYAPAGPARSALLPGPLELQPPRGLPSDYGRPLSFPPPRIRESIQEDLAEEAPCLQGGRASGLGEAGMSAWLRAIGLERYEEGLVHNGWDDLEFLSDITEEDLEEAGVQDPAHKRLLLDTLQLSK
Target,probe-labelled cysteine peptide fold change (10 µM),probe-labelled cysteine peptide fold change (50 µM)
KDELC1_Q6UW63_493_VEPQTEDDLFPCTCHR (UniProt Q6UW63),0.1,0.204
IKBKG_Q9Y6K9_396_RSPPEEPPDFCCPK (UniProt Q9Y6K9),0.158,0.168
INPPL1_O15357_926_KPAFTEASCPLSR (UniProt O15357),-0.388,-1.32
